Experimental data reported in the supplement of paper PMC11417369.
The list shows a part of the results.

Tested on: PfSIP2 AP2 domain 1 (GST-tagged)
Assay: gcPBM binding intensity (ln(normalized median fluorescence intensity)); higher = stronger DNA binding
In short: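 Binding of GST-tagged P. falciparum DNA-binding domains, expressed in E. coli and used at about 25 μg on average, was carried out for 1 h in 1× PBS containing 1% milk, 0.2 mg/ml BSA, 0.5% salmon testes DNA and 0.03% Triton X-100. The target was an Agilent 4 × 180k array of primer-extended double-stranded 36-bp intergenic genomic probes plus negative controls, read with Alexa488 anti-GST antibody at 488 nm. Binding intensity is the highest Masliner-normalised natural-log median intensity across replicate spots of either probe orientation.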

Going from “ATAAAAAAAATTTGCACACCTTCAAAGTAATATATA [CACACA_site1584]” to “TAATTTTTTTTTTTTTTTTTTGTACTTCATTTTTAT [CACACA_negctrl_site1395]”, the “gcPBM binding intensity (ln)” value falls from 7.35 to 7.03.

Compared with “AAAAAAAAAAAAAGTACATGCAATATGGATCTTAAA [TGCATGCA_site367]”, “AACATTCTAAAACACACACACACATATATATATATA [CACACA_site1052]” is higher in “gcPBM binding intensity (ln)” value: 7.06 for the first, 9.1 for the second.

Compared with “TACACAAGCGGACACACACACATATATATATATATA [CACACA_site4832]”, “TATATATAAAAAAGCACACATACATACATACATAAT [CACACA_site890]” is lower in “gcPBM binding intensity (ln)” value: 9.83 for the first, 6.95 for the second.

Compared with “TTTTCACTTTTAAAAACATGCATACTTTATAAAATA [TGCATGCA_site967]”, “AAAAAAAAAAAACACACACACACATAAATATATATA [CACACA_site149]” is higher in “gcPBM binding intensity (ln)” value: 7.27 for the first, 7.36 for the second.

Going from “TATTAACATATATAAAGTACATTAAACAACATTGTA [XGTACX_site7667]” to “TGTAAATTTGGCATCACACATAAATAAACATATAAA [CACACA_site4497]”, the “gcPBM binding intensity (ln)” value rises from 6.99 to 7.02.

First: AAAAGAAATATTTATACACACACACTAACATATATA [CACACA_site8580]
Second: GTGAAAAAAAACATATGTACTTATACACTAATCTAT [XGTACX_site7600]
The “gcPBM binding intensity (ln)” value of the first is lower: 6.94 for the first, 7.2 for the second.

Going from “TTATATATAATTACATGTACGTAGTATTATTTAAAT [XGTACX_site3418]” to “TTATCATTTTAATGGTGTACTCAATAAAAACTTTAA [XGTACX_site4595]”, the “gcPBM binding intensity (ln)” value falls from 7.18 to 6.97.

Compared with “ATGTCTATAATAAGAACACACATATATTTAATTTAA [CACACA_site7394]”, “TGGTAAAGGAGCAAGATGATAAATCTCCATAACTTT [CACACA_negctrl_site492]” is lower in “gcPBM binding intensity (ln)” value: 6.92 for the first, 6.7 for the second.

Compared with “CTATATTCGTTTAATAGTACATATATAACTAGACAA [XGTACX_site5770]”, “GTTGGTACCTTACTTTTACACACTTTTTTTTTTTTT [CACACA_site8441]” is lower in “gcPBM binding intensity (ln)” value: 7.19 for the first, 6.89 for the second.

Going from “TATATATATATGTATACACACATACAAATATGTAAA [CACACA_site9238]” to “TGTTAATTAAAGGACTGTACACTAATAATTCTATAA [XGTACX_site5195]”, the “gcPBM binding intensity (ln)” value falls from 8.7 to 7.03.

Compared with “TCATATGTTTCATGTTGTACATTGAAAGTTTGGCTA [XGTACX_site3202]”, “GTTCTAATATATTGCACACGTAAAAATATAGGTAAT [CACACA_site886]” is higher in “gcPBM binding intensity (ln)” value: 6.84 for the first, 7.42 for the second.

Compared with “AAATATGTACATATTATATATATATAATATATATTG [TGCATGCA_negctrl_site438]”, “AAAAAAAAAATATATATATATATATATATATAATTT [GTGCAC_negctrl_site32]” is higher in “gcPBM binding intensity (ln)” value: 7.02 for the first, 7.7 for the second.

First: AATAAATATAGATTCACACACAAACATATATAAATA [CACACA_site7814]
Second: AAGAAAAAAATTTATACAAGAATTTTTTATTATTAA [TGCATGCA_negctrl_site587]
The “gcPBM binding intensity (ln)” value of the first is higher: 6.88 for the first, 6.81 for the second.

Going from “TAATTGTACGCCAATACACACAGAATTAGAATGTAG [CACACA_site102]” to “ATAAATAAATGGTGTTGTACTCTATTATATATATAT [XGTACX_site7835]”, the “gcPBM binding intensity (ln)” value rises from 7.57 to 8.66.

Going from “ATTCACTAAAAAATTGCATGCAATAAATTTTTTTTT [TGCATGCA_site962]” to “TTTTATTGTTGTTATACACACCATATAAAATATTTC [CACACA_site4983]”, the “gcPBM binding intensity (ln)” value rises from 6.52 to 6.94.

First: AATTGATTTATATATTGTACATATAAATTTATGTAT [XGTACX_site7785]
Second: ATATTTATCTTTTTATGTACATATGCCCCTTTTCTG [XGTACX_site673]
The “gcPBM binding intensity (ln)” value of the first is lower: 6.84 for the first, 7.39 for the second.

Compared with “AAGAAAATTAAATTAACACACATAAATATATATATA [CACACA_site1664]”, “GAGTTATTTCTTATTTAAGCATTCTACATATATATA [CACACA_negctrl_site239]” is lower in “gcPBM binding intensity (ln)” value: 8.96 for the first, 7.2 for the second.

Going from “ATTTTACATATTTGCACACATATATTTAAATACATA [CACACA_site4627]” to “GTCCTTATGGATGATAAATTATTTTAAATATTCTAT [XGTACX_negctrl_site200]”, the “gcPBM binding intensity (ln)” value falls from 7.27 to 6.76.

Compared with “TCTTGGTTATTAAAAAAAAAAAAATATATTTTTCCT [TGCATGCA_negctrl_site445]”, GGGAAAATAAATAAAGTGCAGATATTAAAAGTTGTA is higher in “gcPBM binding intensity (ln)” value: 6.83 for the first, 8.04 for the second.

Going from “TTGCATATTTCTAATTGTACATTATTTTATTTTATA [XGTACX_site8451]” to “AATAAAAAATATATGAGTACTAAATTGTTTTCTTAA [XGTACX_site8573]”, the “gcPBM binding intensity (ln)” value falls from 6.96 to 6.83.

First: CTCAACGATAGAGAAACATGCAAGTATAAGCAACTA [TGCATGCA_site771]
Second: AAAAAAATAACAAAATGTATACAATATAACAAAAAT [GTGCAC_negctrl_site512]
The “gcPBM binding intensity (ln)” value of the first is lower: 6.8 for the first, 7.13 for the second.

First: AACATATACCCAGGTACATGCAAATATATATATTAT [TGCATGCA_site878]
Second: TTCTTTCTTCAAAAGTGTACCAAATGTTAGAAAGGT [XGTACX_site4353]
The “gcPBM binding intensity (ln)” value of the first is lower: 6.95 for the first, 7.65 for the second.

Compared with “TTTAAAAATTAATTCTGTACACATTTTTATTTTATT [XGTACX_site8]”, “ATATATATATATATGTGTACACAACAAAATAAAAAA [XGTACX_site7378]” is higher in “gcPBM binding intensity (ln)” value: 7.07 for the first, 9.19 for the second.

First: TTTATTTATTATTAAAGTACTAAATCATATTATTAT [XGTACX_site992]
Second: TTTTCTTTTTTCTGTTGTACTAAAAATAATTTTGTA [XGTACX_site5171]
The “gcPBM binding intensity (ln)” value of the first is lower: 6.88 for the first, 6.98 for the second.

Going from “CCACTAATAAATATTACACACATATATATATATATT [CACACA_site3128]” to “TATTTATATATTATGTGTCCACATGTAAGCTATCTT [XGTACX_site3887]”, the “gcPBM binding intensity (ln)” value falls from 7.37 to 6.87.

First: TATACATTATCTTATGCATGCGCATCTGCATATAAA [TGCATGCA_site266]
Second: ATTCATTTCTATTTTACACACAATAAGTAACTTAAT [CACACA_site2850]
The “gcPBM binding intensity (ln)” value of the first is lower: 7 for the first, 7.24 for the second.

Compared with “CTCATCCTTACATACACACACATATATATATATATA [CACACA_site103]”, “ATATTTAAATCGAAGGTGCGTATTTCCTTTTTTTTT [GTGCAC_site9632]” is lower in “gcPBM binding intensity (ln)” value: 9.67 for the first, 9.41 for the second.

“ATATATACATATAACACACACATATATATATATATA [CACACA_site2575]” and “AGTATAAATAAATCATAAACATATATATATATATAT [GTGCAC_negctrl_site356]” are the same in “gcPBM binding intensity (ln)” value: 9.25 for the first, 9.25 for the second.

First: TCCTTAAAAATCTAAAAAGAAAAAAACATATATTTT [GTGCAC_negctrl_site123]
Second: TATACCTATAAATACACACACATATATAAATATGTA [CACACA_site6625]
The “gcPBM binding intensity (ln)” value of the first is lower: 6.72 for the first, 7.02 for the second.

First: ATTATTATATATATAACACACATAATTATATACTTA [CACACA_site1563]
Second: AAATAAAAACCATATCGTACAAAAATTTTTGTATTT [XGTACX_site7497]
The “gcPBM binding intensity (ln)” value of the first is higher: 7.21 for the first, 6.86 for the second.

First: ATATATATATATATATGTACTTAAAAATTTGTTTTG [XGTACX_site1514]
Second: AAGTCAATTTTTTTTTTTTTTTTTTAACTTATTAAT [TGCATGCA_negctrl_site14]
The “gcPBM binding intensity (ln)” value of the first is higher: 9.1 for the first, 6.56 for the second.

Compared with “GATCACTGAATAAAGGCACACATCTGACTAATTTTT [CACACA_site66]”, “AATGTATATAATATTAATATGTAAATATATAATCAA [CACACA_negctrl_site1683]” is lower in “gcPBM binding intensity (ln)” value: 6.83 for the first, 6.74 for the second.

First: TTAAAAAGTGCGTAGTGTACTAATATAAATAATACA [XGTACX_site2922]
Second: TGAATAAATATATATACACACCCATATATATATATA [CACACA_site8833]
The “gcPBM binding intensity (ln)” value of the first is lower: 7.74 for the first, 9.46 for the second.

Compared with “GTTGTCCCCCTTTCTATGCACACTTTAAATTATTCA [CACACA_site52]”, “AATTTATAAGAATATTGTACGTTTAATATATTGTAA [XGTACX_site7553]” is lower in “gcPBM binding intensity (ln)” value: 8.38 for the first, 7.27 for the second.

Compared with “ATTCTAATAGATAGTAGTACCTATAAGTTTTCTTTT [XGTACX_site2315]”, “AAAATAATAATTAAATAATAGTAAATGAAAAATAAA [CACACA_negctrl_site57]” is higher in “gcPBM binding intensity (ln)” value: 6.79 for the first, 6.91 for the second.

Going from “AAGTTTATTATATATAAATTATTATATATATATATA [CACACA_negctrl_site189]” to “TATGTGTTCAGTATTGCACACACACTCCAAAATAAA [CACACA_site8018]”, the “gcPBM binding intensity (ln)” value falls from 9.27 to 6.93.

Compared with “ACTTCATTTTATAAGTGTACATAATTTGTTTATATA [XGTACX_site5453]”, “ATAAATACTAGGCACACACACATATAGATTTATATA [CACACA_site7064]” is lower in “gcPBM binding intensity (ln)” value: 7.26 for the first, 7.14 for the second.

Going from “ATATCAACTGAATTGTATAGGCGATAAAAGAAAAAA [CACACA_negctrl_site1334]” to TTTATACATACATTCGTGCACATACGTATAACATAT, the “gcPBM binding intensity (ln)” value rises from 6.73 to 10.1.

Compared with “ATATAAATATATGTATGTACACATTTTTTTTTTTTT [XGTACX_site247]”, “AGAATTATAAATTATAGTACATAAAATTTTGATGTA [XGTACX_site5726]” is lower in “gcPBM binding intensity (ln)” value: 7.11 for the first, 6.97 for the second.

First: AAACGATCTCGATGTTGTACACATTTATATAGAAAC [XGTACX_site4373]
Second: TACTAAAATATATATATGCAACATGAGATATTCAAC [XGTACX_negctrl_site283]
The “gcPBM binding intensity (ln)” value of the first is lower: 7.13 for the first, 7.17 for the second.

Compared with “CATGTGTGTATAATTTGTACATATACATAATAAATA [XGTACX_site2418]”, “CTAAACTAAACAAACTGTACACAAATAAAACAATAA [XGTACX_site8880]” is higher in “gcPBM binding intensity (ln)” value: 6.92 for the first, 7.4 for the second.

First: TCTCATAGGAAACACACACACACACCCACATATATA [CACACA_site1738]
Second: ATATATTTTTTAAATTTAAAAATTATAAAATTTATA [TGCATGCA_negctrl_site36]
The “gcPBM binding intensity (ln)” value of the first is higher: 7.13 for the first, 6.96 for the second.

First: ATATATGTGCGCGTATGTACATAAAATAAATATACA [XGTACX_site2689]
Second: TAAATAAAAAAAAAAAGTACATACATACAAACATAT [XGTACX_site4427]
The “gcPBM binding intensity (ln)” value of the first is higher: 7.71 for the first, 7.08 for the second.

Going from “TGGGTCTCTAACTGGTGTACTATTTACATATTATAC [XGTACX_site8593]” to “TATGATTTTAACAACTGTACAATATAATAAATCTAA [XGTACX_site2198]”, the “gcPBM binding intensity (ln)” value falls from 7.03 to 6.86.
